{"source": "the supplement of paper PMC9446081", "note": "Among all 39,000 compounds or so, about 220 (0.56%) showed activity. This is one part of the list.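 Further: static incubation at 37 °C against the wild-type strain, values averaged over two biological replicates.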"}
{"system": "Escherichia coli K-12 BW25113", "assay": "relative growth (OD600 normalised to plate interquartile mean) (fraction); higher = less growth inhibition, active = 0.2 or less", "settings": "50 µM; LB; incubation time: overnight (16-24 h)"}
{"smiles": "COc1ccc(NC(=O)N(C)C[C@H]2Oc3ccc(NS(C)(=O)=O)cc3CC(=O)N([C@H](C)CO)C[C@H]2C)cc1", "relative growth": "inactive: 1.02"}
{"smiles": "COc1cccc(C#Cc2ccc3c(c2)O[C@H](CN(C)C(=O)CN2CCOCC2)[C@@H](C)CN([C@H](C)CO)S3(=O)=O)c1", "relative growth": "inactive: 1.03"}
{"smiles": "C[C@@H]1CCCCO[C@H](CN(C)Cc2ccc(C(F)(F)F)cc2)[C@@H](C)CN([C@H](C)CO)C(=O)c2cc(NS(=O)(=O)c3ccccc3)ccc2O1", "relative growth": "inactive: 1.01"}
{"smiles": "COCc1cn(CC[C@@H]2CC[C@@H](NC(=O)CCN3CCCCC3)[C@@H](CO)O2)nn1", "relative growth": "inactive: 1.02"}
{"smiles": "CC1=C(C(=O)O)N2C(=O)C(NC(=O)C(N)c3ccccc3)C2SC1", "note": "(stereo unspecified)", "relative growth": "inactive: 1.03"}
{"smiles": "COc1ccc2c(c1)C(=O)C(=O)N2", "relative growth": "inactive: 0.974"}
{"smiles": "COc1ccccc1-c1ccc2c(c1)O[C@@H](CN(C)CC1CCOCC1)[C@@H](C)CN([C@@H](C)CO)S2(=O)=O", "relative growth": "inactive: 0.987"}
{"smiles": "C[C@H](CO)N1C[C@H](C)[C@H](CN(C)S(=O)(=O)c2ccc(Cl)cc2)Oc2c(NC(=O)c3ccc(-c4nccs4)cc3)cccc2C1=O", "relative growth": "inactive: 0.996"}
{"smiles": "CO[C@@H](CN(C)S(=O)(=O)c1cccc(Cl)c1)[C@@H](C)CN([C@@H](C)CO)S(=O)(=O)c1ccc(Cl)cc1", "relative growth": "inactive: 1"}
{"smiles": "CS(=O)(=O)N1[C@@H]2c3ccc(-c4ccccc4)c(=O)n3C[C@H]1[C@H](CO)[C@H]2C(=O)NCC1CC1", "relative growth": "inactive: 0.977"}
{"smiles": "Cc1c(/C=N/O)sc2ccccc12", "relative growth": "inactive: 0.975"}
{"smiles": "Cc1noc(C)c1NC(=O)Nc1ccc2c(c1)C(=O)N([C@@H](C)CO)C[C@H](C)[C@H](CN(C)Cc1ccc(C(=O)O)cc1)OCCCC[C@@H](C)O2", "relative growth": "inactive: 0.992"}
{"smiles": "CC(C)NC(=O)Nc1ccc2c(c1)CC(=O)N([C@@H](C)CO)C[C@H](C)[C@@H](CN(C)S(=O)(=O)c1cccs1)O2", "relative growth": "inactive: 0.981"}
{"smiles": "Cc1noc(C)c1NC(=O)Nc1ccc2c(c1)C(=O)N([C@@H](C)CO)C[C@@H](C)[C@@H](CN(C)Cc1ccc(C(=O)O)cc1)OCCCC[C@H](C)O2", "relative growth": "inactive: 1"}
{"smiles": "COc1ccc(C(C)(C)N)cc1OC", "relative growth": "inactive: 1.02"}
{"smiles": "C[C@H]1CN([C@@H](C)CO)C(=O)Cc2cc(NC(=O)Cn3cnnn3)ccc2O[C@H]1CN(C)C(=O)Nc1ccc(C(F)(F)F)cc1", "relative growth": "inactive: 0.975"}
{"smiles": "C[C@@H]1CN([C@H](C)CO)C(=O)c2cccc(NC(=O)C3CCOCC3)c2O[C@H]1CN(C)S(=O)(=O)c1ccc(F)cc1", "relative growth": "inactive: 0.983"}
{"smiles": "C[C@@H]1CN([C@@H](C)CO)C(=O)Cc2cc(NC(=O)Nc3cccc4ccccc34)ccc2O[C@@H]1CN(C)C(=O)Nc1cccc2ccccc12", "relative growth": "inactive: 0.982"}
{"smiles": "C[C@@H]1CCCCO[C@@H](CN(C)C(=O)c2ccccc2)[C@@H](C)CN([C@@H](C)CO)C(=O)c2cc(NC(=O)C3CCCCC3)ccc2O1", "relative growth": "inactive: 0.977"}
{"smiles": "O=C(C[C@@H]1C=C[C@@H](NC(=O)c2ccc(F)cc2)[C@@H](CO)O1)NCc1ccncn1", "relative growth": "inactive: 1.01"}
{"smiles": "COc1ccccc1S(=O)(=O)N1C[C@H](O)COC[C@H]2O[C@@H](CC(=O)O)CC[C@@H]21", "relative growth": "inactive: 0.954"}
{"smiles": "C[C@H](CO)N1C[C@H](C)[C@H](CN(C)Cc2ccc(C(F)(F)F)cc2)Oc2c(NC(=O)c3ccc(-c4nccs4)cc3)cccc2C1=O", "relative growth": "inactive: 1.02"}
{"smiles": "Cc1ccc(S(=O)(=O)Nc2ccc3c(c2)C(=O)N([C@H](C)CO)C[C@@H](C)[C@@H](CN(C)C(=O)Nc2c(C)noc2C)OCCCC[C@@H](C)O3)cc1", "relative growth": "inactive: 0.994"}
{"smiles": "Cc1noc(C)c1S(=O)(=O)N(C)C[C@H]1Oc2ccc(NC(=O)CCC(F)(F)F)cc2CC(=O)N([C@H](C)CO)C[C@H]1C", "relative growth": "inactive: 1.02"}
{"smiles": "COc1ccccc1-c1ccc2c(c1)O[C@H](CN(C)S(=O)(=O)c1ccccc1)[C@@H](C)CN([C@@H](C)CO)S2(=O)=O", "relative growth": "inactive: 1.06"}
{"smiles": "C[C@@H]1CN([C@@H](C)CO)C(=O)Cc2cc(NC(=O)CCN3CCOCC3)ccc2O[C@H]1CN(C)Cc1ccccc1", "relative growth": "inactive: 1.02"}
{"smiles": "C[C@@H]1CCCCO[C@@H](CN(C)Cc2ccc(Cl)c(Cl)c2)[C@H](C)CN([C@H](C)CO)C(=O)c2cc(NC(=O)NC3CCCCC3)ccc2O1", "relative growth": "inactive: 1.04"}
{"smiles": "NC1CONC1=O", "note": "(stereo unspecified)", "relative growth": "inactive: 1.03"}
{"smiles": "C[C@@H]1CN([C@@H](C)CO)C(=O)c2cccc(NS(=O)(=O)c3cn(C)cn3)c2O[C@@H]1CN(C)Cc1ccc2c(c1)OCO2", "relative growth": "inactive: 0.962"}
{"smiles": "C[C@H](CO)N1C[C@H](C)[C@H](CN(C)S(=O)(=O)c2cn(C)cn2)Oc2ccc(NC(=O)c3ccncc3)cc2CC1=O", "relative growth": "inactive: 0.976"}
{"smiles": "C[C@H]1CN([C@@H](C)CO)C(=O)c2cccc(NC(=O)c3ccc(-c4nccs4)cc3)c2O[C@@H]1CN(C)Cc1ccc(C(=O)Nc2ccccc2N)cc1", "relative growth": "inactive: 1.08"}
{"smiles": "COC(=O)Cn1c(Cl)nc2c1c(=O)n(C)c(=O)n2C", "relative growth": "inactive: 0.999"}
{"smiles": "COc1cccc(S(=O)(=O)Nc2ccc3c(c2)[C@H]2C[C@@H](CC(=O)N4CCCCC4)O[C@@H](CO)[C@H]2O3)c1", "relative growth": "inactive: 1.01"}
{"smiles": "C[C@@H]1CN([C@H](C)CO)C(=O)c2cc(NS(=O)(=O)c3cccs3)ccc2O[C@@H]1CN(C)Cc1ccncc1", "relative growth": "inactive: 0.985"}
{"smiles": "C[C@@H]1CN([C@@H](C)CO)C(=O)Cc2cc(NC(=O)Cc3ccccc3)ccc2O[C@H]1CN(C)S(C)(=O)=O", "relative growth": "inactive: 0.973"}
{"smiles": "O=C(NCc1ccccc1)[C@@]1(CCS(=O)(=O)c2ccccc2)COC(c2ccc(OCCCO)cc2)=N1", "relative growth": "inactive: 0.989"}
{"smiles": "O=C(Cn1cc(COc2ccc3ccccc3c2)nn1)NS(=O)(=O)c1ccccc1OC(F)(F)F", "relative growth": "inactive: 0.991"}
{"smiles": "O=C(C[C@H]1C[C@H]2c3cc(NC(=O)Cc4ccncc4)ccc3O[C@H]2[C@H](CO)O1)NCc1cc(F)ccc1F", "relative growth": "inactive: 1.01"}
{"smiles": "Cc1noc(C)c1NC(=O)Nc1ccc2c(c1)C(=O)N([C@@H](C)CO)C[C@@H](C)[C@@H](CN(C)Cc1ccc(Cl)c(Cl)c1)O2", "relative growth": "inactive: 0.959"}
{"smiles": "C[C@H](CO)N1C[C@H](C)[C@@H](CN(C)Cc2ccc(C(=O)Nc3ccccc3N)cc2)OCc2cnnn2CCCC1=O", "relative growth": "inactive: 1.01"}
{"smiles": "CC(=O)N1CCC[C@@H]1C(=O)O", "relative growth": "inactive: 0.971"}
{"smiles": "Cc1noc(C)c1NC(=O)Nc1ccc2c(c1)C(=O)N([C@H](C)CO)C[C@H](C)[C@@H](CN(C)Cc1ccc(Cl)c(Cl)c1)OCCCC[C@@H](C)O2", "relative growth": "inactive: 1.02"}
{"smiles": "CCc1nc2ccc(C(=O)Nc3cccc(OC)c3)cn2c1N(CC)Cc1cccc(Br)c1", "relative growth": "inactive: 1.01"}
{"smiles": "C[C@@H]1CN([C@H](C)CO)C(=O)c2cccc(NC(=O)NC3CCCCC3)c2O[C@@H]1CN(C)Cc1ccc(C(=O)Nc2ccccc2N)cc1", "relative growth": "inactive: 1.03"}
{"smiles": "C[C@H]1CN([C@@H](C)CO)C(=O)c2cc(NC(=O)Nc3ccc(C(F)(F)F)cc3)ccc2O[C@@H]1CN(C)Cc1ccc(Cl)c(Cl)c1", "relative growth": "inactive: 0.991"}
{"smiles": "C[C@@H]1CCCCO[C@@H](CN(C)C(=O)Nc2ccc(F)cc2)[C@H](C)CN([C@@H](C)CO)C(=O)c2cc(NC(=O)CCCN(C)C)ccc2O1", "relative growth": "inactive: 0.968"}
{"smiles": "C[C@@H]1CN([C@@H](C)CO)C(=O)Cc2cc(NS(=O)(=O)c3cccs3)ccc2O[C@@H]1CN(C)S(=O)(=O)c1cccs1", "relative growth": "inactive: 0.982"}
{"smiles": "Cc1ccc(S[C@]2(C(=O)NCCN3CCOCC3)CC(=O)N(C(C)C)[C@@H]2c2ccc(CO)cc2)cc1", "relative growth": "inactive: 1"}
{"smiles": "Cc1noc(C)c1S(=O)(=O)Nc1ccc2c(c1)CC(=O)N([C@@H](C)CO)C[C@H](C)[C@@H](CN(C)C(=O)NC1CCCCC1)O2", "relative growth": "inactive: 0.942"}
{"smiles": "CCn1cnc(C(=O)NC)c1C(=O)NC", "relative growth": "inactive: 1.01"}
{"smiles": "C[C@H]1CCCCO[C@@H](CN(C)C(=O)Nc2ccc3c(c2)OCO3)[C@@H](C)CN([C@@H](C)CO)C(=O)c2cc(NS(=O)(=O)c3ccc(F)cc3)ccc2O1", "relative growth": "inactive: 1.05"}
{"smiles": "CCCN(C)C[C@H]1OCCCC[C@H](C)Oc2ccc(NS(=O)(=O)c3cn(C)cn3)cc2C(=O)N([C@H](C)CO)C[C@H]1C", "relative growth": "inactive: 0.989"}
{"smiles": "C[C@@H]1CCCCO[C@@H](CN(C)S(=O)(=O)c2cccs2)[C@H](C)CN([C@@H](C)CO)C(=O)c2cc(NC(=O)C3CCCCC3)ccc2O1", "relative growth": "inactive: 0.968"}
{"smiles": "CC1=NCCN1", "relative growth": "inactive: 0.997"}
{"smiles": "COc1ccc(S(=O)(=O)Nc2ccc3c(c2)C(=O)N([C@H](C)CO)C[C@H](C)[C@@H](CN(C)Cc2ccc(Cl)c(Cl)c2)OCCCC[C@H](C)O3)cc1", "relative growth": "inactive: 0.968"}
{"smiles": "CC(C)(C)OC(=O)C[C@@H]1CC=CC[C@H](CC(=O)NCCO)C(=O)NCCOC1=O", "relative growth": "inactive: 0.982"}
{"smiles": "CO[C@H]1CN(C)C(=O)c2ccc(NS(C)(=O)=O)cc2OC[C@@H](C)N(C(=O)C2CCCCC2)C[C@H]1C", "relative growth": "inactive: 0.981"}
{"smiles": "C[C@H](CO)N1C[C@H](C)[C@H](CN(C)Cc2ccncc2)Oc2ccc(NS(=O)(=O)c3cccs3)cc2CC1=O", "relative growth": "inactive: 0.97"}
{"smiles": "C[C@@H]1O[C@@H](OC[C@H]2O[C@@H](Oc3cc(O)c4c(c3)O[C@@H](c3ccc(O)cc3)CC4=O)[C@H](O)[C@@H](O)[C@@H]2O)[C@H](O)[C@H](O)[C@H]1O", "relative growth": "inactive: 1"}
{"smiles": "Cn1cnc(S(=O)(=O)N[C@H]2C=C[C@@H](CC(=O)NCC3CC3)O[C@H]2CO)c1", "relative growth": "inactive: 0.988"}
{"smiles": "Cc1ccc(S(=O)(=O)Nc2cccc3c2O[C@H](CN(C)Cc2ccc(Cl)c(Cl)c2)[C@@H](C)CN([C@H](C)CO)C3=O)cc1", "relative growth": "inactive: 1.05"}
